# From the supplement of paper PMC8728848
# The list shows a part of the results.
# B1: OGAN (protein)
# chain: MVQKESQATLEERESELSSNPAASAGASLEPPAAPAPGEDNPAGAGGAAVAGAAGGARRFLCGVVEGFYGRPWVMEQRKELFRRLQKWELNTYLYAPKDDYKHRMFWREMYSVEEAEQLMTLISAAREYEIEFIYAISPGLDITFSNPKEVSTLKRKLDQVSQFGCRSFALLFNDIDHNMCAADKEVFSSFAHAQVSITNEIYQYLGEPETFLFCPTEYCGTFCYPNVSQSPYLRTVGEKLLPGIEVLWTGPKVVSKEIPVESIEEVSKIIKRAPVIWDNIHANDYDQKRLFLGPYKGRSTELIPRLKGVLTNPNCEFEANYVAIHTLATWYKSNMNGVRKDVVMTDSEDSTVSIQIKLENEGSDEDIETDVLYSPQMALKLALTEWLQEFGVPHQY
# Tests used:
# Test in all cases: glycan array binding signal (z-score within array); higher = stronger binding
# Conditions in all cases: glycan notation: IUPAC condensed, linker removed
# [1] = biological target: Neu5Ac(a2-6)GlcNAc(b1-4)GlcNAc(b1-4)GlcNAc
# Procedure, shortened: (§1)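 Arrays were curated from the Consortium for Functional Glycomics database, 3228 in total, and kept only where the protein sequence was available. Binding is expressed as a within-array Z-score. This score was averaged across arrays of the same protein sequence at different concentrations or buffers and across linkers, and negative values can be read as non-binding.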
# [2] = biological target: Neu5Ac(a2-8)Neu5Ac
# Procedure, shortened: as §1
# [3] = biological target: Neu5Ac(a2-8)Neu5Ac(a2-3)Gal(b1-3)GalNAc(b1-4)[Neu5Ac(a2-3)]Gal(b1-4)Glc
# Procedure, shortened: as §1
# [4] = biological target: Neu5Ac(a2-8)Neu5Ac(a2-3)Gal(b1-3)GalNAc(b1-4)[Neu5Ac(a2-8)Neu5Ac(a2-3)]Gal(b1-4)Glc
# Procedure, shortened: as §1
# [5] = biological target: Neu5Ac(a2-8)Neu5Ac(a2-3)Gal(b1-4)Glc
# Procedure, shortened: as §1
# [6] = biological target: Neu5Ac(a2-8)Neu5Ac(a2-3)Gal(b1-4)GlcNAc
# Procedure, shortened: as §1
# [7] = biological target: Neu5Ac(a2-8)Neu5Ac(a2-3)[Gal(b1-3)GalNAc(b1-4)]Gal(b1-4)Glc
# Procedure, shortened: as §1
# [8] = biological target: Neu5Ac(a2-8)Neu5Ac(a2-3)[GalNAc(b1-4)]Gal(b1-4)Glc
# Procedure, shortened: as §1
# [9] = biological target: Neu5Ac(a2-8)Neu5Ac(a2-8)Neu5Ac
# Procedure, shortened: as §1
# [10] = biological target: Neu5Ac(a2-8)Neu5Ac(a2-8)Neu5Ac(a2-3)Gal(b1-4)Glc
# Procedure, shortened: as §1
# [11] = biological target: Neu5Ac(a2-8)Neu5Ac(a2-8)Neu5Ac(a2-3)[Gal(b1-3)GalNAc(b1-4)]Gal(b1-4)Glc
# Procedure, shortened: as §1
# [12] = biological target: Neu5Ac(a2-8)Neu5Ac(a2-8)Neu5Ac(a2-3)[GalNAc(b1-4)]Gal(b1-4)Glc
# Procedure, shortened: as §1
# [13] = biological target: Neu5Ac(a2-8)Neu5Ac(a2-8)Neu5Ac(a2-8)Neu5Ac(a2-3)[GalNAc(b1-4)]Gal(b1-4)Glc
# Procedure, shortened: as §1
# [14] = biological target: Neu5Ac(a2-8)Neu5Gc(a2-3)Gal(b1-4)GlcNAc
# Procedure, shortened: as §1
# [15] = biological target: Neu5Ac(b2-6)Gal(b1-4)GlcNAc
# Procedure, shortened: as §1
# [16] = biological target: Neu5Ac(b2-6)GalNAc
# Procedure, shortened: as §1
# [17] = biological target: Neu5Ac9Ac(a2-3)Gal(b1-3)GlcNAc
# Procedure, shortened: as §1
# [18] = biological target: Neu5Ac9Ac(a2-3)Gal(b1-4)GlcNAc
# Procedure, shortened: as §1
# [19] = biological target: Neu5Ac9Ac(a2-6)Gal(b1-4)GlcNAc
# Procedure, shortened: as §1
# [20] = biological target: Neu5Gc(a2-3)Gal(b1-3)GlcNAc
# Procedure, shortened: as §1
# [21] = biological target: Neu5Gc(a2-3)Gal(b1-3)[Fuc(a1-4)]GlcNAc
# Procedure, shortened: as §1
# [22] = biological target: Neu5Gc(a2-3)Gal(b1-4)Glc
# Procedure, shortened: as §1
# [23] = biological target: Neu5Gc(a2-3)Gal(b1-4)GlcNAc
# Procedure, shortened: as §1
# [24] = biological target: Neu5Gc(a2-3)Gal(b1-4)GlcNAc(b1-3)Gal(b1-4)GlcNAc(b1-2)Man(a1-3)[Neu5Gc(a2-3)Gal(b1-4)GlcNAc(b1-3)Gal(b1-4)GlcNAc(b1-2)Man(a1-6)]Man(b1-4)GlcNAc(b1-4)GlcNAc
# Procedure, shortened: as §1
# [25] = biological target: Neu5Gc(a2-3)Gal(b1-4)[Fuc(a1-3)]GlcNAc
# Procedure, shortened: as §1
# [26] = biological target: Neu5Gc(a2-6)Gal(b1-4)GlcNAc
# Procedure, shortened: as §1
# [27] = biological target: Neu5Gc(a2-6)GalNAc
# Procedure, shortened: as §1
# [28] = biological target: Neu5Gc(a2-8)Neu5Ac(a2-3)Gal(b1-4)GlcNAc
# Procedure, shortened: as §1
# [29] = biological target: Neu5Gc(a2-8)Neu5Gc(a2-3)Gal(b1-4)GlcNAc
# Procedure, shortened: as §1
# [30] = biological target: Neu5Gc(a2-8)Neu5Gc(a2-3)Gal(b1-4)GlcNAc(b1-3)Gal(b1-4)GlcNAc
# Procedure, shortened: as §1
# [31] = biological target: Neu5Gc(a2-8)Neu5Gc(a2-6)Gal(b1-4)GlcNAc
# Procedure, shortened: as §1
# [32] = biological target: Neu5Gc(b2-6)Gal(b1-4)GlcNAc
# Procedure, shortened: as §1
binder,measurement,setting,value
B1,glycan array binding signal (z-score),[1],-0.055
same,glycan array binding signal (z-score),[2],-0.063
same,glycan array binding signal (z-score),[3],-0.033
same,glycan array binding signal (z-score),[4],-0.058
same,glycan array binding signal (z-score),[5],-0.057
same,glycan array binding signal (z-score),[6],-0.079
same,glycan array binding signal (z-score),[7],-0.052
same,glycan array binding signal (z-score),[8],-0.034
same,glycan array binding signal (z-score),[9],-0.014
same,glycan array binding signal (z-score),[10],-0.034
same,glycan array binding signal (z-score),[11],-0.099
same,glycan array binding signal (z-score),[12],-0.065
same,glycan array binding signal (z-score),[13],-0.016
same,glycan array binding signal (z-score),[14],-0.058
same,glycan array binding signal (z-score),[15],-0.089
same,glycan array binding signal (z-score),[16],-0.022
same,glycan array binding signal (z-score),[17],-0.118
same,glycan array binding signal (z-score),[18],-0.02
same,glycan array binding signal (z-score),[19],-0.067
same,glycan array binding signal (z-score),[20],-0.081
same,glycan array binding signal (z-score),[21],-0.055
same,glycan array binding signal (z-score),[22],-0.044
same,glycan array binding signal (z-score),[23],-0.055
same,glycan array binding signal (z-score),[24],-0.044
same,glycan array binding signal (z-score),[25],-0.051
same,glycan array binding signal (z-score),[26],-0.071
same,glycan array binding signal (z-score),[27],-0.093
same,glycan array binding signal (z-score),[28],-0.064
same,glycan array binding signal (z-score),[29],-0.063
same,glycan array binding signal (z-score),[30],-0.062
same,glycan array binding signal (z-score),[31],-0.074
same,glycan array binding signal (z-score),[32],-0.021
